Experimental data reported in publication PMC6212790.
Some of the results follow. At the low end of the ranking the order means little.

Biological target: T1, GST-Rok (full length) (UniProt O34857)
T1 sequence: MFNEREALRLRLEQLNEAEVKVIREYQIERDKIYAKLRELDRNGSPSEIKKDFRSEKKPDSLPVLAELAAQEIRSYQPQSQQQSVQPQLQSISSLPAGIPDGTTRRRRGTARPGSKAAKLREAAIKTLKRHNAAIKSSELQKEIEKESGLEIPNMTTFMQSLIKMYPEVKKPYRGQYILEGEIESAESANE
Experiment: protein binding microarray;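 further: rank score from −0.5 (least bound) to 0.5 (best bound)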
Conditions: Rok is a gene silencer of Bacillus subtilis; high values mean tight binding; most listed sequences are background and not binding sites; double strand, one strand shown

Question: With AACGAAAC as the sequence, how does the binding signal read?
Answer: Its binding signal is 0.121 E-score.

Question: CCCCAAAA was tested. Which binding signal did it give?
Answer: The binding signal was -0.284 E-score.

Question: ACCAACAT was tested. Which binding signal did it give?
Answer: The binding signal was 0.137 E-score.

Question: How did the binding signal turn out when AGCTTACA was run?
Answer: Its binding signal is 0.0835 E-score.

Question: How did the binding signal turn out when AACGATTA was run?
Answer: The binding signal was -0.086 E-score.

Question: Which binding signal does the source give for CTCCTTTC here?
Answer: Its binding signal is -0.244 E-score.

Question: How did the binding signal turn out when ACTAACGA was run?
Answer: The binding signal was 0.182 E-score.

Question: With CGCGCCAC as the sequence, how does the binding signal read?
Answer: Its binding signal is -0.253 E-score.

Question: With AACGCAGG as the sequence, how does the binding signal read?
Answer: Its binding signal is -0.155 E-score.

Question: How did the binding signal turn out when ATACCCTC was run?
Answer: Its binding signal is -0.132 E-score.

Question: CCCTATCG was tested. Which binding signal did it give?
Answer: The binding signal was 0.109 E-score.

Question: With GGCAGCAA as the sequence, how does the binding signal read?
Answer: The binding signal was -0.0478 E-score.

Question: GTATAAGA was tested. Which binding signal did it give?
Answer: Its binding signal is 0.199 E-score.

Question: CGAGCAAA was tested. Which binding signal did it give?
Answer: Its binding signal is 0.0324 E-score.

Question: CGGCAGCC was tested. Which binding signal did it give?
Answer: Its binding signal is -0.33 E-score.

Question: For AGCCCCAA, which binding signal is on record?
Answer: Its binding signal is -0.308 E-score.

Question: Which binding signal does the source give for CCCGAAAA here?
Answer: The binding signal was -0.0778 E-score.

Question: With AGAGCAGG as the sequence, how does the binding signal read?
Answer: The binding signal was -0.156 E-score.

Question: Which binding signal does the source give for ATGATCCC here?
Answer: The binding signal was 0.00817 E-score.

Question: For GGGCACCA, which binding signal is on record?
Answer: The binding signal was -0.229 E-score.

Question: With TACAAGAA as the sequence, how does the binding signal read?
Answer: Its binding signal is 0.205 E-score.

Question: Which binding signal does the source give for GTACACCA here?
Answer: The binding signal was 0.269 E-score.

Question: CATTGAGG was tested. Which binding signal did it give?
Answer: Its binding signal is -0.107 E-score.

Question: With AGGAGTAT as the sequence, how does the binding signal read?
Answer: The binding signal was 0.128 E-score.

Question: With AGCAGCAA as the sequence, how does the binding signal read?
Answer: Its binding signal is -0.0912 E-score.

Question: How did the binding signal turn out when ATAAATAA was run?
Answer: The binding signal was 0.329 E-score.

Question: For AAGAACAA, which binding signal is on record?
Answer: Its binding signal is 0.00669 E-score.

Question: AACCGGCT was tested. Which binding signal did it give?
Answer: Its binding signal is -0.126 E-score.

Question: For CCCGACGA, which binding signal is on record?
Answer: Its binding signal is -0.104 E-score.

Question: ATAAACAC was tested. Which binding signal did it give?
Answer: The binding signal was 0.191 E-score.

Question: With AGCTATAA as the sequence, how does the binding signal read?
Answer: The binding signal was 0.25 E-score.

Question: How did the binding signal turn out when AACTAAAA was run?
Answer: Its binding signal is 0.345 E-score.

Question: For ACATTCGA, which binding signal is on record?
Answer: The binding signal was 0.129 E-score.

Question: With CCTGCACC as the sequence, how does the binding signal read?
Answer: The binding signal was -0.351 E-score.

Question: For ATTCTTTG, which binding signal is on record?
Answer: Its binding signal is 0.149 E-score.

Question: How did the binding signal turn out when TCAGGCAA was run?
Answer: The binding signal was -0.00625 E-score.

Question: With AAAGTCCG as the sequence, how does the binding signal read?
Answer: Its binding signal is -0.15 E-score.

Question: CGACCTCC was tested. Which binding signal did it give?
Answer: The binding signal was -0.263 E-score.

Question: How did the binding signal turn out when ACTTTCCC was run?
Answer: Its binding signal is 0.0425 E-score.

Question: Which binding signal does the source give for CGGGGTCC here?
Answer: The binding signal was -0.389 E-score.

Question: Which binding signal does the source give for CCCCAGGA here?
Answer: The binding signal was -0.34 E-score.

Question: How did the binding signal turn out when TATGCTCA was run?
Answer: The binding signal was -0.122 E-score.

Question: CACAGGGC was tested. Which binding signal did it give?
Answer: The binding signal was -0.35 E-score.

Question: Which binding signal does the source give for ACTGAACG here?
Answer: Its binding signal is 0.0514 E-score.

Question: CTGAACGA was tested. Which binding signal did it give?
Answer: The binding signal was -0.194 E-score.

Question: With CCATGTAC as the sequence, how does the binding signal read?
Answer: The binding signal was 0.193 E-score.

Question: With ATACGGTC as the sequence, how does the binding signal read?
Answer: The binding signal was -0.0248 E-score.

Question: For GCAGAAAC, which binding signal is on record?
Answer: The binding signal was -0.0153 E-score.

Question: Which binding signal does the source give for TGAGACAA here?
Answer: Its binding signal is -0.0486 E-score.

Question: ACAGGCGT was tested. Which binding signal did it give?
Answer: The binding signal was -0.0875 E-score.

Question: How did the binding signal turn out when ACTGCGTA was run?
Answer: The binding signal was 0.177 E-score.

Question: How did the binding signal turn out when CCGAAGAG was run?
Answer: The binding signal was -0.241 E-score.

Question: How did the binding signal turn out when CATAACAG was run?
Answer: Its binding signal is 0.134 E-score.

Question: With AACGTGCT as the sequence, how does the binding signal read?
Answer: The binding signal was 0.0531 E-score.

Question: GAATCCTA was tested. Which binding signal did it give?
Answer: The binding signal was -0.0459 E-score.

Question: Which binding signal does the source give for ATAGCCTA here?
Answer: The binding signal was 0.0588 E-score.

Question: How did the binding signal turn out when CTACTATA was run?
Answer: Its binding signal is 0.399 E-score.

Question: For AGGCTGGA, which binding signal is on record?
Answer: Its binding signal is -0.214 E-score.

Question: With AGCGCCGC as the sequence, how does the binding signal read?
Answer: Its binding signal is -0.274 E-score.

Question: For GGGCAGTA, which binding signal is on record?
Answer: Its binding signal is -0.0575 E-score.

Question: Which binding signal does the source give for ATGCGTTA here?
Answer: Its binding signal is 0.171 E-score.

Question: AATCATGA was tested. Which binding signal did it give?
Answer: Its binding signal is -0.0298 E-score.

Question: Which binding signal does the source give for CTCCGTCC here?
Answer: The binding signal was -0.346 E-score.

Question: For TCTAACAA, which binding signal is on record?
Answer: The binding signal was 0.0589 E-score.

Question: For ACTCACAG, which binding signal is on record?
Answer: The binding signal was -0.0591 E-score.

Question: How did the binding signal turn out when CTTCGATA was run?
Answer: Its binding signal is 0.123 E-score.

Question: With CTCGCACA as the sequence, how does the binding signal read?
Answer: The binding signal was -0.247 E-score.

Question: Which binding signal does the source give for CCCCCTGA here?
Answer: Its binding signal is -0.395 E-score.

Question: For ATGAACAC, which binding signal is on record?
Answer: The binding signal was -0.057 E-score.

Question: Which binding signal does the source give for ACTCTCAC here?
Answer: The binding signal was 0.187 E-score.

Question: How did the binding signal turn out when CGGACAGC was run?
Answer: The binding signal was -0.1 E-score.

Question: Which binding signal does the source give for AAGTGGGA here?
Answer: The binding signal was -0.224 E-score.

Question: How did the binding signal turn out when CCGAACCA was run?
Answer: Its binding signal is -0.227 E-score.

Question: How did the binding signal turn out when CAGCCTAC was run?
Answer: Its binding signal is -0.0926 E-score.

Question: How did the binding signal turn out when CTAATGCC was run?
Answer: Its binding signal is -0.0513 E-score.

Question: For ACTGTTAT, which binding signal is on record?
Answer: The binding signal was 0.287 E-score.

Question: With ACGAATCC as the sequence, how does the binding signal read?
Answer: The binding signal was 0.0453 E-score.

Question: How did the binding signal turn out when TTGCCAAA was run?
Answer: Its binding signal is 0.0655 E-score.

Question: TAACACAA was tested. Which binding signal did it give?
Answer: The binding signal was 0.116 E-score.

Question: For CAAATCCA, which binding signal is on record?
Answer: Its binding signal is -0.0639 E-score.

Question: How did the binding signal turn out when CTCGGAAC was run?
Answer: Its binding signal is -0.246 E-score.

Question: For TAGCAACA, which binding signal is on record?
Answer: Its binding signal is 0.21 E-score.

Question: For ACCTCCGA, which binding signal is on record?
Answer: The binding signal was -0.276 E-score.

Question: AATGGGAA was tested. Which binding signal did it give?
Answer: Its binding signal is -0.0114 E-score.

Question: With AGTAGCAC as the sequence, how does the binding signal read?
Answer: Its binding signal is 0.14 E-score.

Question: With CGCCCCCG as the sequence, how does the binding signal read?
Answer: The binding signal was -0.325 E-score.

Question: With CTCTTTAC as the sequence, how does the binding signal read?
Answer: The binding signal was 0.158 E-score.

Question: Which binding signal does the source give for CGTACCAC here?
Answer: The binding signal was -0.0224 E-score.

Question: With GACTCGCA as the sequence, how does the binding signal read?
Answer: Its binding signal is -0.145 E-score.

Question: Which binding signal does the source give for GACTGACC here?
Answer: Its binding signal is -0.0978 E-score.

Question: For AAGCGTCT, which binding signal is on record?
Answer: Its binding signal is -0.0297 E-score.

Question: How did the binding signal turn out when AGCTATCA was run?
Answer: The binding signal was 0.336 E-score.

Question: Which binding signal does the source give for CACGAATA here?
Answer: The binding signal was 0.215 E-score.

Question: With TCACGCGA as the sequence, how does the binding signal read?
Answer: Its binding signal is 0.0466 E-score.
